Out of some 48,000 compounds screened, about 120 (0.25%) were called active. Not shown: some 4% with an inconclusive outcome. The call rests on the fitted dose curve; in most records, active means well fitted activation curve with a large enough effect; inconclusive means small, poorly fitted or top-dose-only effect, or another doubt; inactive means no such curve, though single readings can be large or run the other way. Some of the results follow.
Test: Primary qHTS for Identification of Small Molecule Activators of Huntingtin-Antisense Promoter Activity; further: nearly all actives have a fitted effect of over 55% in size
Conditions: HEK293 HTT-AS promoter firefly luciferase reporter, 24 h; series mostly up to 57.5 µM; activity change, positive = activation: at the top concentration
From the text: Assay Provider: Russell L. Margolis M.D.
Department Neurology, Johns Hopkins University School of Medicine, Baltimore, MD
Huntington's Disease (HD) is a neurodegenerative disorder caused by a CAG repeat expansion in exon 1 of huntingtin (HTT). While there are currently no disease-modifying treatments for HD, recent efforts have focused on development of nucleotide-based therapeutics to lower HTT expression. As an alternative to siRNA or oligonucleotide methods, we hypothesized that suppression of HTT expression might be accomplished by small molecules that either (1) directly decrease HTT expression by suppressing HTT promoter activity or (2) indirectly decrease HTT expression by increasing the promoter activity of HTT-AS, the gene antisense to HTT that appears to inhibit expression of HTT.
We developed and employed a high throughput screen for modifiers of HTT and HTT-AS promoter activity using luminescent reporter HEK293 cells; of the 52,041 compounds tested, we identified 898 replicable hits. We used a rigorous stepwise approach to assess compound toxicity and the capacity of the compounds to specifically lower huntingtin protein in 5 different cell lines, including HEK293 cells, HD lymphoblastoid cells, mouse primary neurons, HD iPSCs differentiated into cortical-like neurons, and HD hESCs. We found no compounds which were able to lower huntingtin without lowering cell viability in all assays, though the potential efficacy of a few compounds at non-toxic doses could not be excluded.
SEQUENCE No. (1, 2, 3, etc.); […] (e.g., Cells, Incubation, Reagent, etc.); VALUE and DESCRIPTION.
1; Reagent; 4 uL; 2,500 Hek293 luciferase reporter cells per wells
3; Compound; 23 nL; Control inhibitor / compound library
5; Reagent; 2.5 uL; Firefly Luc reagent; Dual-Glo Luciferase Reporter Assay System (Promega)
6; Time; 10 min; room temperature incubation
7; Detection; Luminescence; FLuc
NOTES (numbers refer to sequence above)
1; High-throughput screening, measuring luminescence from a Hek293 luciferase reporter, was performed in 1,536 well white-walled tissue-culture treated plates. 2,500 cells were plated in 4 µL of Opti-MEM per well using a Multidrop Combi Reagent Dispenser (ThermoFisher).
2; Assay plates were cultured for 24 hours.
3; Control inhibitor (PTC124; final concentration of 50 uM) and compound library (at final concentrations of 460 nM - 57.5 uM) were added to the assay plate using the Kalypsis Pintool Robotic System equipped with 1536 pinheads.
4; Cells were then incubated for 24 hours at 37 degrees C prior to luminescence measurements.
5; In all cases, luminescence was measured using the Dual-Glo Luciferase Reporter Assay System (Promega) following the manufacturer's instructions.
6; Room temperature incubation.
7; Luminescence signal was obtained using the PerkinElmer ViewLux plate reader. Results were normalized to vehicle control (0% activity) and zero RLU (-100% activity).
Potency means the concentration at half of the fitted maximal effect.

Activity change, positive = activation, inactive:
COc1ccc2c(c1)CC(C(=O)NCCCN1CCN(c3ccccc3F)CC1)CO2 (configuration not stated) -20.5%
CCC(=O)N1CCc2cc(Br)cc(S(=O)(=O)CCC(=O)Nc3ccc(C)c(F)c3)c21 10%
C#CCn1cnc2c(cnn2-c2ccc(F)cc2)c1=O -4.7%
O=C(NOCC1CC1)c1ccc(F)c(F)c1Nc1ccc(I)cc1Cl
CCn1c(C)c(C)c2cc(C(=O)NCc3ccc(OC)cc3OC)ccc21 -11.8%
CCN(CC)S(=O)(=O)c1ccc(NC(=O)c2c(C)oc3ncnc(N4CCOCC4)c23)cc1 -18.6%
CC(C)(C)c1ccc(C2=NC(C)(C)N(CC(=O)Nc3ccc(F)c(F)c3)C2=O)cc1 -31%
CC(=O)Nc1ccc(NC(=O)c2cc3sccc3n2Cc2ccc(Cl)cc2)cc1 -22.4%
COc1cc(NC(=O)Cn2cnc3c2c(=O)n(C)c(=O)n3C)c(OC)cc1Cl -11.4%
CCOC(=O)c1c(NC(=O)/C(C#N)=C/c2ccccc2)sc2c1CCC2 9.78%
Cc1cc(C)cc(NC(=O)Nc2ccccc2OCc2cc(=O)n3ccccc3n2)c1 14.7%
CCOc1ccccc1NC(=O)c1c(NCc2cccs2)sc2c1CCCCC2 -23.8%
CCOc1ccc(NC(=O)c2c(NC(=O)c3ccccc3F)sc3c2CCC3)cc1 -6.84%
CCOc1cc(/C=C(\C#N)C(=O)Nc2ccc(C)cc2)ccc1OCc1cc(=O)n2nc(CC)sc2n1 -11.5%
Nc1ncnc2c1ncn2Cc1c(F)cccc1Cl -5.51%
Cc1ccc(NC(=O)[C@H]2O[C@@H]3OC(C)(C)O[C@@H]3[C@H]3OC(C)(C)O[C@H]32)cc1F -5.53%
CC(C(=O)Nc1ccccc1C(F)(F)F)n1nnc2sc3c(c2c1=O)CCCC3 (configuration not stated) -8.78%
CCc1ccc(CNC(=O)CSc2c3c(nc4ccc(Cl)cc24)CCCC3)cc1 -9.18%
O=C(NCCn1cc(SCc2ccccc2F)c2ccccc21)c1cccs1 -19.6%
CCS(=O)(=O)NCC(c1ccco1)N1CCN(c2ccccc2)CC1 (configuration not stated) -6.23%
CSc1nc(Nc2ccc(C)cc2)c(C#N)c(-c2ccccc2)n1 -9.29%
Cc1ccc2c(c1)C(c1ccccc1)N(C(=O)c1ccc(S(=O)(=O)N3CCCCC3)cc1)CC(=O)N2 (configuration not stated) 2.14% [at 11.5 µM, percent change from vehicle, -100% = no light]
Cc1ccccc1NC(=O)C(=O)NCC1(c2ccccc2)CCCC1 -15.9%
COc1ccc(Cl)cc1NC(=O)c1cnc(SC)nc1-c1ccccc1 -24.4%
CCN1CCN(c2ncc3c(n2)CCN(Cc2sccc2C)C3)CC1 -10.7%
CCOc1ccc(Nc2nc(C)c(NC(=O)c3ccc(C)cc3)c(Nc3ccc(OCC)cc3)n2)cc1 -44.9%
O=C(CSc1nnc2scc(-c3ccc(Cl)cc3)n12)Nc1cccc(C(F)(F)F)c1 -19%
COc1cc(NC(=O)CC(C)S(=O)(=O)c2ccc3c(c2)CCN3C(C)=O)cc(OC)c1OC (configuration not stated) -7.66%
Cc1ccc(NC(=O)CN(C)S(=O)(=O)c2cccc3cccnc23)cc1F -16.1%
CCOC(=O)Cc1ccc(NC(=O)N2CCc3c(sc4c3CCCC4)C2c2ccc(F)cc2)cc1 (configuration not stated) 0%
COc1ccc(Cl)cc1Nc1nc2ccc(C(=O)c3ccccc3)cc2n2cnnc12 25.6%
CCn1c(=O)c2cc(C(=O)N3CCN(c4cccc(OC)c4)CC3)sc2c2ccccc21 -36.3%
CN(CC(=O)Nc1ccc(Cl)cc1F)S(=O)(=O)c1ccc2c(c1)n(C)c(=O)c(=O)n2C -19.4%
CCc1ccc(C(c2ccccc2)c2c[nH]c3ccc(C)cc23)s1 (configuration not stated) 12.5%
CCc1cccc(-n2nnc(-c3nsc(NC(=O)c4ccc(C)cc4)n3)c2C)c1 -18.2%
CC(C(=O)O)c1ccc(CC2CCCC2=O)cc1 (configuration not stated) -5.81%
Cc1sc2ncn(CC(=O)N3CCN(c4ccccc4)CC3)c(=O)c2c1S(=O)(=O)N1CCN(c2ncccn2)CC1 -20.7%
COc1ccc(Cn2ccnc2SCC(=O)NC2CCCC2)cc1 -17.4%
CC(CCc1ccccc1)NC(=O)Cn1c(=O)nc(-c2ccccc2F)c2cc(Cl)ccc21 (configuration not stated) -8.66%
Cc1oc(-c2ccccc2F)nc1CSCC(=O)NCc1ccccc1 -14.2%
Cc1cccc(C)c1NC(=O)CSc1ncc2c(n1)-c1ccc(Cl)cc1N(Cc1ccccc1)S2(=O)=O -24%
COc1ccc2c(c1)CC(C(=O)Nc1cccc(C)c1C)CO2 (configuration not stated) -16.6%
CC(C)c1ccc(NC(=O)C2CCCN(S(=O)(=O)c3cccc4nsnc34)C2)cc1 (configuration not stated) -25.3%
CC(C)C[C@@H]1[C@H](c2ccccc2)OC(=O)N1CCCN1CCCCCC1 -3.77%
COC(=O)c1ccc(NS(=O)(=O)c2c(C)nc3sccn3c2=O)cc1 -21.3%
C/C(=C(\CCO)SS/C(CCO)=C(\C)N(C=O)Cc1cnc(C)nc1N)N(C=O)Cc1cnc(C)nc1N -4.72%
COc1cccc(-n2ccnc2SCC(=O)Nc2ccc(Cl)c(Cl)c2)c1 -26%
CSc1ccc(CCNC(=O)c2ccc3c(c2)nc2n3CCCCC2)cc1 -51.8%
CCOC(=O)Cn1c(=O)n(C2CCCCC2)c2nc(-c3ccc(OCC)cc3)nc(C(N)=O)c21 -21.6%
COc1ccc(C2CC(=O)c3cnc4c(-c5ccccc5)c(C)nn4c3C2)cc1OC (configuration not stated) -27.1%
O=C(CSc1nccn1-c1ccc(Cl)cc1)Nc1cccc2ccccc12 -12.1%
Cc1ccc(CSc2ncc(Cl)c(C(=O)Nc3nc4ccc(C)cc4s3)n2)cc1 10.6%
Oc1c(C(c2ccccc2)N2CCN(c3cccc(Cl)c3)CC2)sc2nc(-c3ccco3)nn12 (configuration not stated) -10.3%
O=c1c(=O)n(-c2ccccc2)ccn1Cc1cccc(C(F)(F)F)c1 -12.1%
Cc1ccc(NC(=O)c2cc3nc(-c4ccc5c(c4)OCO5)cc(C(F)(F)F)n3n2)cc1Cl 4.53%
O=C(NCc1ccc(F)cc1)c1ccc(CS(=O)Cc2ccc(Cl)cc2)o1 (configuration not stated) -33.5%
COc1ccccc1CNS(=O)(=O)c1cc(Br)cc2c1N(C(C)=O)C(C)C2 (configuration not stated) -18.9%
O=C1COc2ccc(-c3cc(-c4ccc(F)cc4)c4c(n3)-c3cc(Cl)ccc3OC4)cc2N1 1.29%
Cc1c(C(=O)Nc2ccccc2Cl)sc2ncnc(N(C)C3CCCCC3)c12 -13%
CCc1ccc(CNC(=O)C2CCCN(c3nnc(C)c4c(C)n(-c5ccc(OC)cc5)nc34)C2)cc1 (configuration not stated) -18.3%
COc1cc(Cl)c(NC(=O)c2cc(CN3CCCC3)on2)c(OC)c1 -8.35%
Cc1ccc(N2CC(c3nnc(Cc4ccc(F)cc4)o3)CC2=O)cc1 (configuration not stated) -12%
CCOc1ccc(C2C(C(=O)OC)=C(C)NC3=C2C(=O)c2ccccc23)cc1OC (configuration not stated) -33.9%
CCc1ccc(NC(=O)C2CCCN(c3nn4cc(-c5ccc(OC)cc5)nc4s3)C2)cc1 (configuration not stated) -24.1%
O=C(Nc1ccc(F)cc1Cl)C1CCN(c2ncnc3c2nc2n3CCCCC2)CC1 -1.96%
CN(C1CCCCC1)S(=O)(=O)c1ccc2c(c1)c(=O)c(C(=O)NCc1ccccc1Cl)cn2C 8.18% [at 11.5 µM, percent change from vehicle, -100% = no light]
c1ccc(C(O[C@H]2CCCN(CCc3ccc4c(c3)OCO4)C2)c2ccccc2)cc1 -4.65%
O=C(NCC(c1ccc2c(c1)OCO2)N1CCN(c2ccc(F)cc2)CC1)c1cccc([N+](=O)[O-])c1 (configuration not stated) -39.5%
Cc1ccc2onc(CNC(=O)Nc3ccccc3C#N)c2c1 -13.6%
COc1cccc(CNC(=O)CCc2c(C)nc3c(c2C)c(=O)n(C)c(=O)n3C)c1 -0.496%
CCc1ccccc1NC(=O)CSc1ncccc1C(=O)O 8.97%
COc1ccc(Nc2ncnc3c2c(-c2ccccc2)cn3-c2ccc(C)c(Cl)c2)cc1OC 4.94%
Cc1nn(C)c2c1c(C(F)(F)F)cc(=O)n2C(C)C(=O)NCCc1ccc(Cl)cc1 (configuration not stated) -21.7%
COCCOC(=O)c1c(C)oc2c1cc(NS(=O)(=O)c1ccc(Cl)c(C)c1)c1ccccc12 -30.7%
Cc1ccc(Oc2coc3cc(OCC(=O)NC4CCCCC4)ccc3c2=O)cc1 -6.16%
N#Cc1ccc(C(=O)Nc2ccccc2-c2nc3ccccc3s2)c(F)c1 -5.58%
COc1ccc(OCc2ccc(-c3nc(C#N)c(NCc4ccccc4)o3)o2)cc1 6.06%
CNS(=O)(=O)c1ccc(NC(=O)c2cnn3c(C(F)F)cc(-c4ccccc4)nc23)cc1 -9.93%
CCOC(=O)c1cnc2c(Cl)c(Cl)ccc2c1NCCN1CCOCC1 -8.67%
CCOC(=O)Cc1ccc(NC(=O)n2ncc3cc(Cl)ccc32)cc1 -91.3%
O=c1c(-c2ccc(O)cc2)coc2cc(O[C@@H]3O[C@H](CO)[C@H](O)[C@H](O)[C@H]3O)ccc12 20.2%
COc1cccc(CNC(=O)c2ccc3c(c2)N(C)C(=O)C2CCCCN32)c1 (configuration not stated) -8.95%
COc1ccc(-c2nc(SCC(=O)Nc3ccc4c(c3)OCO4)c(-c3ccccc3)[nH]2)cc1 -35.7%
CCc1ccc(NC(=O)C2CCC(CNS(=O)(=O)c3cccs3)CC2)cc1 (configuration not stated) -8.67%
Cc1ccccc1NC(=O)c1c(NC(=O)c2ccncc2)sc2c1CCC(C(C)(C)C)C2 (configuration not stated) 11.3% [at 11.5 µM, percent change from vehicle, -100% = no light]
COc1ccccc1NC(=O)C1=C(C)Nc2nc(-c3ccco3)nn2C1c1ccccc1 (configuration not stated) -14.1%
CC1CCN(c2cc3c(cc2F)c(=O)c(S(=O)(=O)c2ccc(Cl)cc2)cn3C)CC1 -13.3%
COc1ccc(Nc2nc3c(S(=O)(=O)c4ccc(Br)cc4)nnn3c3ccsc23)c(OC)c1 -10.4%
CCOC(=O)c1c(NC(=O)c2cc(-c3ccc(Cl)cc3)on2)sc2c1CCCC2 -8.21%
CNS(=O)(=O)c1cc(-c2nn3c(C)nnc3c3ccccc23)ccc1C 5.21%
Cc1ccc(CNc2oc(-c3ccc(COc4ccc(Cl)cc4)o3)nc2C#N)cc1 -51%

Potency, active:
Cc1ccc(NC(=O)c2cccc(N3CCCS3(=O)=O)c2)cc1C 2.24 µM
